# Reference: publication PMC7819943, “Rice protein-binding microarrays: a tool to detect cis-acting elements near promoter regions in rice”
# Some of the results follow.
# Target: T1, OsWOX13 (Oryza sativa, UniProt Q5QMM3 1-267)
# T1 sequence: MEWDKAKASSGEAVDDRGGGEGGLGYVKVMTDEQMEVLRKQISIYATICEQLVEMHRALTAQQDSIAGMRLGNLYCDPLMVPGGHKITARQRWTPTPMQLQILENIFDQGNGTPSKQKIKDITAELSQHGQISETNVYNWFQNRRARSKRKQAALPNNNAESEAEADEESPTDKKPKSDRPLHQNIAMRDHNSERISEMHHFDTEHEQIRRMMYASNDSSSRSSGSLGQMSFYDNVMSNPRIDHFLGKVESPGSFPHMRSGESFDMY
# Assay: protein-binding microarray (RPBM); PBS, 2% BSA, 51.3 ng/ul salmon testes DNA, 50 uM zinc acetate, 200 nM TF, 25 C, 1 h; high values mean tight binding
# Conditions: protein: recombinant; tags: N-terminal polyhistidine and DsRed monomer fusion (pET32a); label: CyDye5-dUTP incorporated in the synthesized complementary strand; 3' TTTTT single-stranded linker to array surface; dsDNA, one strand shown
# Outline: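 Using Ni–NTA, transcription factors fused N-terminally to polyhistidine and DsRed were purified after expression in E. coli BL21-CodonPlus. These were incubated at 200 nM with a blocked, double-stranded custom Agilent array for 1 h at 25 °C in a buffer containing 50 µM zinc acetate, and the array was washed. The binding signal is per-feature fluorescence intensity (arbitrary units) on an Axon 4000B scanner.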
row,Sequence,binding signal
1,CTTTTAGATTTGACATTTACAATTTTACCACTGATATACGCGGAGTCACCTAGTGCAG,23500 fluorescence intensity (a.u.)
2,CTTTGTAATTTTATTGGCATCCATTCAGTTGATAAAGACCCGGAGTCACCTAGTGCAG,3620 fluorescence intensity (a.u.)
3,CCAAATTACACGGTTTTGTATAGTTTAGGGCCGAAGGTTTCGGAGTCACCTAGTGCAG,4330 fluorescence intensity (a.u.)
4,GTTTAAAGGGGATTGAAGAGGATTGGCGTGGAATAAATCCCGGAGTCACCTAGTGCAG,11300 fluorescence intensity (a.u.)
5,TGGTTGCAAATTGATTTGGTTATTTAGTATAAACATCCTCCGGAGTCACCTAGTGCAG,40100 fluorescence intensity (a.u.)
6,TTGGACAGAACTGGTGATTGTTCAAGCTTCAAATTTGAAACGGAGTCACCTAGTGCAG,7190 fluorescence intensity (a.u.)
7,ACTCCGAAATAATATTAAATTAGAAATCTAATGATCTAGACGGAGTCACCTAGTGCAG,3490 fluorescence intensity (a.u.)
8,GGTTGGGAATGGCTGGCGGTTAATTCAATTTGCTGCTGACCGGAGTCACCTAGTGCAG,3730 fluorescence intensity (a.u.)
9,TGCTAATAAATCTTGATTTGTTTCACATAGAAGCTGCATCCGGAGTCACCTAGTGCAG,26400 fluorescence intensity (a.u.)
10,GTGTTAGAGAAGTATTAATTGGCAAGAGTAAAACATGTTACGGAGTCACCTAGTGCAG,6520 fluorescence intensity (a.u.)
11,CAAAGGTTTTAATTAATCTCGTATTGGGTTCTTATATGGACGGAGTCACCTAGTGCAG,3700 fluorescence intensity (a.u.)
12,AGAAAATTTCCCAATTAATGGCATTGTTGGCTACTTATTACGGAGTCACCTAGTGCAG,18800 fluorescence intensity (a.u.)
13,TTGCAAATTGCAAACAGGCGATGGCTGATCTGATGCATCTCGGAGTCACCTAGTGCAG,10900 fluorescence intensity (a.u.)
14,TGACATTCGTAATTATACTCCAATATAATATTATCCATATCGGAGTCACCTAGTGCAG,4040 fluorescence intensity (a.u.)
15,CTTGAACTTGATTGTGCCCGTACAGGAACGGAACAGCAAGCGGAGTCACCTAGTGCAG,13300 fluorescence intensity (a.u.)
16,TAGTGACGGATAGATTACACACAATTAAAAGATGCCATTACGGAGTCACCTAGTGCAG,9930 fluorescence intensity (a.u.)
17,TTTAATTTGGCCTACTTAATTCTCGTCTACAAATTGAGCCCGGAGTCACCTAGTGCAG,12400 fluorescence intensity (a.u.)
18,CTAAACTTGGTTAAATTTCCATCAGGAAATCAAACTCTACCGGAGTCACCTAGTGCAG,11000 fluorescence intensity (a.u.)
19,CTCTAAATTTGTGCAGATGTGTCACCTAGATCCCTGAACTCGGAGTCACCTAGTGCAG,11700 fluorescence intensity (a.u.)
20,TGCTGACGTGACAGGACAACGCTGCCATAGCTAAAAGGTTCGGAGTCACCTAGTGCAG,5000 fluorescence intensity (a.u.)
21,GGAGGAGCTAATCAAATCAAGTCAAATCGAATCAAATCAACGGAGTCACCTAGTGCAG,4610 fluorescence intensity (a.u.)

row,Sequence,binding signal
1,GTGTATTACACGGAGGAAATTGACAGGTGTGGAAATTGAGCGGAGTCACCTAGTGCAG,14500 fluorescence intensity (a.u.)
2,TCTTGACGGGGAGTTACCATTGAATATATTTTGATAATATCGGAGTCACCTAGTGCAG,4170 fluorescence intensity (a.u.)
3,TTGTGATTGGTTAAGATAAATAAATTGTTGTAGATATTCTCGGAGTCACCTAGTGCAG,48800 fluorescence intensity (a.u.)
4,CATTCATATTGATATTAATGAGATAACCCGTTAATGAGATCGGAGTCACCTAGTGCAG,4620 fluorescence intensity (a.u.)
5,CCGCAATTAAACGCCATCTCGATCGAAAGCTAGACTAACCCGGAGTCACCTAGTGCAG,3250 fluorescence intensity (a.u.)
6,GATATTAACTTGATTAATTCTAGCTGATTAGCTAGCTTGGCGGAGTCACCTAGTGCAG,36900 fluorescence intensity (a.u.)
7,CACTTGACTGGCTGATGCTATTGGCCTCTGTTATATTTTCCGGAGTCACCTAGTGCAG,19900 fluorescence intensity (a.u.)
8,CATTATTTCACTTGATTAAATTGCTTTAACTTTTATTTAGCGGAGTCACCTAGTGCAG,15900 fluorescence intensity (a.u.)
9,CAAATCAAAATTTATAAACTTTCAAACTCAAAACATGCTACGGAGTCACCTAGTGCAG,5240 fluorescence intensity (a.u.)
10,TTATTAATTGTTCTACAATACGCCAATGGGCTGGGCTTTCCGGAGTCACCTAGTGCAG,9540 fluorescence intensity (a.u.)
11,CGCGGGATTGTGATTTCTATACCATCCCTGAATGGTACGACGGAGTCACCTAGTGCAG,6350 fluorescence intensity (a.u.)
12,TCTTATTGACATGGCACCATAGACACTGCTTATGGATACTCGGAGTCACCTAGTGCAG,11700 fluorescence intensity (a.u.)
13,ATGATAAATTAAGTAATACGAAAACAGAATCATCATATAGCGGAGTCACCTAGTGCAG,10200 fluorescence intensity (a.u.)
14,AAATTTAAAATTTAAACTTTGACTACGATTGATAAGCCAACGGAGTCACCTAGTGCAG,9150 fluorescence intensity (a.u.)
15,ATACAATTATTACAATCTATTAAAAGCACATTAACATAACCGGAGTCACCTAGTGCAG,10200 fluorescence intensity (a.u.)
16,TCCTATTGATTTTGTGCGATGGCTTGTAATAGGATGCCACCGGAGTCACCTAGTGCAG,9560 fluorescence intensity (a.u.)
17,CTACATTGCTAATCCAAATAATTAGCACTAATCACGAAATCGGAGTCACCTAGTGCAG,15900 fluorescence intensity (a.u.)
18,AGTACAGCAGAATTAATTGATGGGGCTTCTGTTTTGAGTTCGGAGTCACCTAGTGCAG,19100 fluorescence intensity (a.u.)
19,AGATTATCAATTATTGAATTAAAGGAAATTGTGTCCGGACCGGAGTCACCTAGTGCAG,21300 fluorescence intensity (a.u.)
20,GGATGGGTGAGGGGATCGGCGAAGGCGGCGGGGTGGCGAACGGAGTCACCTAGTGCAG,5130 fluorescence intensity (a.u.)
21,GCTAATTACTTTTCGACTGTACTTAAACATGTTGACCCTACGGAGTCACCTAGTGCAG,38100 fluorescence intensity (a.u.)

row,Sequence,binding signal
1,CTAATCAAGATTAGATATACCTAGAACAACAAATGCCAAACGGAGTCACCTAGTGCAG,4220 fluorescence intensity (a.u.)
2,GGTACACATATGTGATTACTTGCAAACGGAAATCCTCTAGCGGAGTCACCTAGTGCAG,4820 fluorescence intensity (a.u.)
3,AATAATAGATATTGCAGTTAAATAGTAAACGAAGCACACCCGGAGTCACCTAGTGCAG,8760 fluorescence intensity (a.u.)
4,AGAGGGAGATTGGATTTGCTTAATTTGTTACATATTCTGGCGGAGTCACCTAGTGCAG,30500 fluorescence intensity (a.u.)
5,TTAAAATTTTATTATCATTTGTCTATTTTATCAGAGCTTACGGAGTCACCTAGTGCAG,12400 fluorescence intensity (a.u.)
6,TTTAATTTCTCTGCTCACCTTTAGGTTTTAGCCATCTAGACGGAGTCACCTAGTGCAG,4400 fluorescence intensity (a.u.)
7,AATAATTTGAAGGGGATCTCCAAGGATACTCCTTGCGCAGCGGAGTCACCTAGTGCAG,13800 fluorescence intensity (a.u.)
8,TTTCCTCATTTATTCACCTGTCACACCATCTTTCATCATACGGAGTCACCTAGTGCAG,4330 fluorescence intensity (a.u.)
9,CTACTGATTATTCAAAGCTATGAAGGATCATTCTAAATCACGGAGTCACCTAGTGCAG,5070 fluorescence intensity (a.u.)
10,GCTACAATTTTAATTACAATCTGACCGGACGCATCCACAACGGAGTCACCTAGTGCAG,9010 fluorescence intensity (a.u.)
11,TTTCCATTCAATTAAACTCACATGGAAATTACTTCGAAAGCGGAGTCACCTAGTGCAG,13100 fluorescence intensity (a.u.)
12,ATCATTTACAAATTACTAAAATTTAAACTCGATATATAAGCGGAGTCACCTAGTGCAG,4020 fluorescence intensity (a.u.)
13,TCCACCGGACAGGAGTAATTGGCAAGAAGAAACAAAAGGGCGGAGTCACCTAGTGCAG,8060 fluorescence intensity (a.u.)
14,ATTGATGATTTTATCTGGTTTGTTCAGCAATTTTGCAAGACGGAGTCACCTAGTGCAG,18000 fluorescence intensity (a.u.)
15,ACATAATTTTGCCCCGGTAATAAAACTTCAAACTTTATGTCGGAGTCACCTAGTGCAG,13900 fluorescence intensity (a.u.)
16,GAACTAACTAATTAAGCTACCTGTGCATGTTGCCCAACCACGGAGTCACCTAGTGCAG,7900 fluorescence intensity (a.u.)
17,GGTCTATAATTAGGGATGGGATAAGCCACTAGGAGGATGACGGAGTCACCTAGTGCAG,7190 fluorescence intensity (a.u.)
18,GATTTAAACTGAAACGAACAGATTCTTTGTTCTTTGCATACGGAGTCACCTAGTGCAG,9800 fluorescence intensity (a.u.)
19,CCTGGTTTCATCAATCCCCATACCATCCAGATAATGTCTTCGGAGTCACCTAGTGCAG,3950 fluorescence intensity (a.u.)
20,GGCGATAAATTGAAGCCAACAACATTGTGTCCATTGTCTTCGGAGTCACCTAGTGCAG,33000 fluorescence intensity (a.u.)
21,ATTGATGAATGTTGACAAACCTGGTTTGATTTGGAGGGAACGGAGTCACCTAGTGCAG,23500 fluorescence intensity (a.u.)

row,Sequence,binding signal
1,GAAATTGCTAGTATATTATTTATGGGATATGGGTGTTACTCGGAGTCACCTAGTGCAG,3170 fluorescence intensity (a.u.)
2,TTTACGTGACCTAATTGGATGGAGGTACTGTAAGGGAACACGGAGTCACCTAGTGCAG,8140 fluorescence intensity (a.u.)
3,AAATTCTTGGGGTAATTGTAAATTTACTACTACTTTGAATCGGAGTCACCTAGTGCAG,4820 fluorescence intensity (a.u.)
4,ATGAGTGAATAAAATAGATAAATTTGGAGATGGTAGTCACCGGAGTCACCTAGTGCAG,3240 fluorescence intensity (a.u.)
5,AGTAATTAGAGGCAGATAGTAATAAGTGAGAGAGACGGGACGGAGTCACCTAGTGCAG,8510 fluorescence intensity (a.u.)
6,AGCTTTGACTGGTCCCCAGCCAGCTCGCCTATAAACGCGCCGGAGTCACCTAGTGCAG,6360 fluorescence intensity (a.u.)
7,GGATTAATTAAGCTTAATAAATTCGTCTCGCAGTTTCCTGCGGAGTCACCTAGTGCAG,27000 fluorescence intensity (a.u.)
8,ATTGTATCTAATTATTGGCAACATGGAAATTAATCTCTTGCGGAGTCACCTAGTGCAG,9160 fluorescence intensity (a.u.)
9,TGAATAATTGCCCAGTTAAAATGTCTGCTACTGAACACTGCGGAGTCACCTAGTGCAG,25800 fluorescence intensity (a.u.)
10,CTAGACATTGATGGAACTCCGAACAAGTCAAAATTGGGTGCGGAGTCACCTAGTGCAG,14000 fluorescence intensity (a.u.)
11,GTACATGAATTTTGATTAATTGCTAATTTTACATATGGATCGGAGTCACCTAGTGCAG,26000 fluorescence intensity (a.u.)
12,TGGTCATTTTGACAAAATTAACGGTGTCTAACAGAGTGAACGGAGTCACCTAGTGCAG,8280 fluorescence intensity (a.u.)
13,GAATAAGTAATTATACTTATCATCCATTTAAACATGTTGCCGGAGTCACCTAGTGCAG,6520 fluorescence intensity (a.u.)
14,CTTTTAGATTTGGTAAATAACTATTTGCCACCTCTATCTCCGGAGTCACCTAGTGCAG,3540 fluorescence intensity (a.u.)
15,CCAGAAATAATTTGAATGCTGATACAGAAACTCGATTTCACGGAGTCACCTAGTGCAG,5000 fluorescence intensity (a.u.)
16,AACTTTTGTAGAGATTGATTGATCTACTGGGCTTGGCCAACGGAGTCACCTAGTGCAG,26900 fluorescence intensity (a.u.)
17,CCAGAGTGAGCAACTGATTGGTAGGCAATCATATGGGATACGGAGTCACCTAGTGCAG,25200 fluorescence intensity (a.u.)
18,TGGATGATTATGTGTCTGACCAAGCGGTTCGAGATGTGAACGGAGTCACCTAGTGCAG,16400 fluorescence intensity (a.u.)
19,CGCCACCAATCAGCGAGCTGCCGGACGAAATATCGGCGCGCGGAGTCACCTAGTGCAG,4640 fluorescence intensity (a.u.)
20,TCAAACTGACATATTGTCAACCGCACAATTAGGCACACAACGGAGTCACCTAGTGCAG,17900 fluorescence intensity (a.u.)
21,AATAATAAAATAAATTACATATTCTGTCTGTAAACTACAACGGAGTCACCTAGTGCAG,4300 fluorescence intensity (a.u.)
